Data published in patent US20110020312A1, “METHODS FOR TREATMENT OF METABOLIC DISORDERS USING EPIMETABOLIC SHIFTERS, MULTIDIMENSIONAL INTRACELLULAR MOLECULES, OR ENVIRONMENTAL INFLUENCERS” (priority 2009, published 2011).

Legend:
Type in all cases: cell-based
SK-MEL-28 cells [1] = assay: Real-time PCR Diabetes Array
Protocol: The formulation of the Q10 was as follows. […] The resulting solution was warmed in a 65° C. water bath and vortexed at high speed. […] For the control vehicle, 9.5 mL of media was added to 500 μL of isopropanol. The control stock was further diluted (2 mL of stock) with 8 mL of media.
(SABiosciences, Frederick, Md.).

SK-MEL28 cells = assay: Nexin assay for apoptosis, 24 h Q10; details: 50 μM and 100 μM Q10, 24 hours
Description: The 7AAD dye will enter into cells with permeabilized cell membranes; primarily those cells that are in late apoptosis. Annexin-V-PE is a dye that binds to Phosphotidyl serine, which is exposed on the outer surface of the plasma membrane in early apoptotic cells. The Nexin reagent thus can be used to differentiate between different populations of apoptotic cells in a flow cytometer.

SK-MEL-28 cells [2] = details: Q10 (24 hr), 50 μM
SK-MEL-28 cells [3] = assay: Real-time PCR Oxidative Stress and Antioxidant Defense Array
Protocol: The resulting solution was warmed in a 65° C. water bath and vortexed at high speed. […] For the control vehicle, 9.5 mL of media was added to 500 μL of isopropanol. The control stock was further diluted (2 mL of stock) with 8 mL of media. […] Experimental details: […] (SABiosciences, Frederick, Md.). […] Further experiments were carried out using SKMEL-28 cells. […] The PCR array (SABiosciences) is a set of optimized real-time PCR primer assays on 96-well plates for pathway or disease focused genes as well as appropriate RNA quality controls. The PCR array performs gene expression analysis with real-time PCR sensitivity and the multi-gene profiling capability of a microarray.

[4] = SK-MEL-28, 100 μM, then (after 48 hours)

COC1=C(OC)C(=O)C(C/C=C(\C)CC/C=C(\C)CC/C=C(\C)CC/C=C(\C)CC/C=C(\C)CC/C=C(\C)CC/C=C(\C)CC/C=C(\C)CC/C=C(\C)CCC=C(C)C)=C(C)C1=O [Q10, Coenzyme Q10]
MAPK14 mRNA (SK-MEL-28 cells [1]; 100 μM Q10): significantly down-regulated
ADRB3 gene Regulation (SK-MEL-28 cells [1]; SK-MEL-28, 100 μM, at 48 hours): Down Regulated
CEACAM1 gene Regulation (SK-MEL-28 cells [1]; SK-MEL-28, 100 μM, at 48 hours): Down Regulated
CEBPA gene Regulation (SK-MEL-28 cells [1]; SK-MEL-28, 100 μM, at 48 hours): Up regulated at
CTLA4 gene Regulation (SK-MEL-28 cells [1]; SK-MEL-28, 100 μM, at 48 hours): Down Regulated
DUSP4 gene Regulation (SK-MEL-28 cells [1]; SK-MEL-28, 100 μM, at 48 hours): Down Regulated
ENPP1 gene Regulation (SK-MEL-28 cells [1]; SK-MEL-28, 100 μM, at 48 hours): Down Regulated
FOXC2 gene Regulation (SK-MEL-28 cells [1]; SK-MEL-28, 100 μM, at 48 hours): Down Regulated
G6PD gene Regulation (SK-MEL-28 cells [1]; SK-MEL-28, 100 μM, at 48 hours): Up regulated at
HMOX1 gene Regulation (SK-MEL-28 cells [1]; SK-MEL-28, 100 μM, at 48 hours): Down Regulated
ICAM1 gene Regulation (SK-MEL-28 cells [1]; SK-MEL-28, 100 μM, at 48 hours): Down Regulated
IL4R gene Regulation (SK-MEL-28 cells [1]; SK-MEL-28, 100 μM, at 48 hours): Down Regulated
IRS1 gene Regulation (SK-MEL-28 cells [1]; SK-MEL-28, 100 μM, at 48 hours): Up regulated at
IRS2 gene Regulation (SK-MEL-28 cells [1]; SK-MEL-28, 100 μM, at 48 hours): Down Regulated
NKX2-1 gene Regulation (SK-MEL-28 cells [1]; SK-MEL-28, 100 μM, at 48 hours): Down Regulated
NSF gene Regulation (SK-MEL-28 cells [1]; SK-MEL-28, 100 μM, at 48 hours): Down Regulated
PIK3CD gene Regulation (SK-MEL-28 cells [1]; SK-MEL-28, 100 μM, at 48 hours): Down Regulated
PPARG gene Regulation (SK-MEL-28 cells [1]; SK-MEL-28, 100 μM, at 48 hours): Down Regulated
PRKCB1 gene Regulation (SK-MEL-28 cells [1]; SK-MEL-28, 100 μM, at 48 hours): Down Regulated
SELL gene Regulation (SK-MEL-28 cells [1]; SK-MEL-28, 100 μM, at 48 hours): Down Regulated
SREBF1 gene Regulation (SK-MEL-28 cells [1]; SK-MEL-28, 100 μM, at 48 hours): Up regulated at
STXBP1 gene Regulation (SK-MEL-28 cells [1]; SK-MEL-28, 100 μM, at 48 hours): Down Regulated
TGFB1 gene Regulation (SK-MEL-28 cells [1]; SK-MEL-28, 100 μM, at 48 hours): Up regulated at
TNF gene Regulation (SK-MEL-28 cells [1]; SK-MEL-28, 100 μM, at 48 hours): Up regulated at
VEGFA gene Regulation (SK-MEL-28 cells [1]; SK-MEL-28, 100 μM, at 58 hours): Up regulated at
TNFRSF1A gene Regulation (SK-MEL-28 cells [1]; SK-MEL-28, 100 μM, at 72 hours): Down Regulated
G6PD gene Regulation (SK-MEL-28 cells [1]; [4]): down regulated
IRS1 gene Regulation (SK-MEL-28 cells [1]; [4]): down regulated
SREBF1 gene Regulation (SK-MEL-28 cells [1]; [4]): down regulated
TGFB1 gene Regulation (SK-MEL-28 cells [1]; [4]): down regulated
VEGFA gene Regulation (SK-MEL-28 cells [1]; SK-MEL-28, 100 μM, then (after 58 hours)): down regulated
expression of the nuclear receptor protein HNF4A (SK-MEL-28 cells [1]; cells following Q10 treatment): upmodulated
early/late apoptotic population (SK-MEL28 cells): increase only in early apoptotic population
identified proteins with altered levels (antibody array) (SK-MEL-28 cells [2]): Bcl-x1, Bmf, BTK, BLK, cJun (pSer63), Connexin 32, PUMA bbc3, BID, Par4, cCb1
Forkhead box M1 (FOXM1) mRNA (SK-MEL-28 cells [3]; 100 μM Q10): down regulated
NOX5 (NADPH oxidase) levels (SK-MEL-28 cells [3]; 100 μM Q10): do not change
PREX1 mRNA (SK-MEL-28 cells [3]; 100 μM Q10): upregulated
Neutrophil cytosolic factor 1 (NCF1) mRNA (SK-MEL-28 cells [3]; 16 hour time point and onward): induced at very high levels
